# Results published in PubChem BioAssay AID651820 (National Center for Advancing Translational Sciences (NCATS), 2012).
# About 12,000 (3.5%) of roughly 340,000 compounds were called active. Inconclusive results, whose numbers are uncertain, are shown with a selection of clear calls. The call rests on the fitted dose curve; in most records, active means well fitted inhibition curve with a large enough effect; inconclusive means small, poorly fitted or top-dose-only effect, or another doubt; inactive means no such curve, though single readings can be large or run the other way. No potency is given beside an inconclusive call; the fits are too rough. Some compounds were tested as several samples or in several runs, with calls that do not always agree.
# Experiment: qHTS Assay for Inhibitors of Hepatitis C Virus (HCV)
# Settings: Huh7.5.1 HCVcc-Cre (HCVcc is cell-culture hepatitis C virus) infection, luciferase reporter, 44 h; activity change, negative = inhibition: at 41.8 µM (top of the series)
# Outline: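 Infectious HCV cell culture screen: compound-treated cells (1,000/well, pre-plated 4 h) are infected with HCVcc-Cre at roughly 0.5 moi and grown 44 h. Infection is quantified by luciferase signal after 15 min substrate incubation at room temperature.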
# On the % scale 0 is the no-effect control and ±100 the full control effect; potency means the concentration at half of the fitted maximal effect; tags describe the fitted curve by direction and shape.
SMILES,Potency,"activity change, negative = inhibition"
CCCCN(CC)C(=O)CSc1nc2ccccc2c(=O)n1CC1COc2ccccc2O1 (configuration not stated),active: 10 µM,
Cc1ccc(NC(=O)Nc2ccccc2C(N)=O)cc1,,inactive: -5.67%
Cc1nc(-c2ccc(C(=O)N3CCOCC3)cc2)cs1,,inactive: 16.7%
CCOc1ccccc1N1CCN(C(=O)c2cc(C)oc2C)CC1,"inconclusive [inhibitor, partial curve]",
C=CCn1c(=S)[nH]c2cc(C(=O)Nc3ccc(OC)c(OC)c3)ccc2c1=O,"inconclusive [inhibitor, partial curve]",
O=C(Nc1c(-c2ccc(F)cc2)nc2ccccn12)c1ccc(F)cc1,"inconclusive [inhibitor, partial curve]",
COc1cccc(C(=O)Nc2nc(-c3ccc(S(=O)(=O)N4CCOCC4)cc3)cs2)c1,active: 10 µM,
O=C(NNC(=O)c1cc(-c2ccncc2)nc2ccccc12)c1ccccc1O,"inconclusive [inhibitor, single point]",
O=C(Nc1ccc2ccccc2n1)c1ccc(Cl)cc1,"inconclusive [inhibitor, partial curve, poor fit]",
N#CCCN(Cc1ccccc1)C(=S)NC(=O)c1ccccc1,,inactive: -0.794%
Cc1cc2c(cc1C)C(c1cc(Br)ccc1F)CC(=O)N2 (configuration not stated),"inconclusive [inhibitor, full curve, poor fit]",
CCOc1ccccc1/C=N/NC(=O)Cc1csc(Nc2cccc(C(F)(F)F)c2)n1,"inconclusive [inhibitor, single point]",
c1ccc2c(c1)c1ccccc1n1c(-c3ccc4c(c3)OCO4)nnc21,"inconclusive [inhibitor, single point]",
O=S(=O)(NCCCN1CCOCC1)c1ccc2c(c1)OCCO2,,inactive: 8.43%
C=CCNC(=S)N/N=C(\C)c1cccnc1,"inconclusive [inhibitor, partial curve]",
O=C(CCCn1c(=O)c2cccn2c2cccnc21)NCc1cccc(Br)c1,"inconclusive [inhibitor, partial curve]",
COc1ccc(CCNC(=O)CCS(=O)(=O)Cc2ccccc2C)cc1OC,,inactive: -2.17%
CCOC(=O)c1ccc(N2CCCCC2)c(NS(=O)(=O)c2ccc(C)cc2)c1,"inconclusive [inhibitor, single point]",
Cc1nn(-c2ccccc2)cc1/C=N/NC(=O)c1cccs1,,inactive: -9.05%
CCOc1ccc(N2C(=O)CC(N3CCc4ccccc43)C2=O)cc1 (configuration not stated),,inactive: 16.1%
COc1ccc(Nc2nc(Cl)nc(Nc3ccc(OC)cc3)n2)cc1,"inconclusive [inhibitor, partial curve]",
O=C(CSc1ccccn1)Nc1ccc2c(c1)oc1ccccc12,"inconclusive [inhibitor, single point]",
Cc1cc(C)c2nc(Nc3nc(-c4ccccc4)cc(=O)[nH]3)nc(C)c2c1,"inconclusive [inhibitor, partial curve]",
c1ccc2c(-c3nc4ncccc4o3)cccc2c1,,inactive: -38.7%

SMILES,Potency,"activity change, negative = inhibition"
CC1CCCC(NC(=O)Cc2ccc(Br)cc2)C1C (configuration not stated),"inconclusive [inhibitor, single point]",
COc1ccc(/C=C/C(=O)OCC(=O)NCc2cccs2)cc1OC,"inconclusive [inhibitor, partial curve]",
COc1ccccc1/C=C/C(=O)NCC(=O)N/N=C/c1ccccc1[N+](=O)[O-],"inconclusive [inhibitor, partial curve]",
Nc1cc2c(cc1Cl)-c1ccc(Cl)cc1C2=O,"inconclusive [inhibitor, full curve]",
CN1C2CCC1CC(OC(c1ccccc1)c1ccccc1)C2 (configuration not stated),"inconclusive [inhibitor, partial curve]",
COc1ccc(Br)cc1CN1CCCC(C(=O)N2CCCCCC2)C1 (configuration not stated),active: 3.16 µM,
CCOc1ccc(-c2cc(C(=O)NN)[nH]n2)cc1,,inactive: 4.1%
Cc1ccc(OC(=O)c2ccc(Cl)c([N+](=O)[O-])c2)cn1,"inconclusive [inhibitor, single point]",
O=S(=O)(Nc1nc2ccccc2nc1-[n+]1cccc(N=C([O-])c2ccc(Cl)cc2)c1)c1ccccc1,,inactive: 1.46%
N#Cc1ccc(COc2ccc(CCO)cc2-n2nc3ccccc3n2)cc1,"inconclusive [inhibitor, single point]",
O=[N+]([O-])c1ccccc1Nc1ccccc1[N+](=O)[O-],,inactive: -10.1%
COC(=O)C1=C(CSc2nc3c(cc2C#N)CN(C)CC3)OC(N)=C(C#N)C1c1ccccc1F (configuration not stated),"inconclusive [inhibitor, partial curve]",
Cc1ccn2c(=O)nc(SCC(=O)N3CCCCCC3)nc2c1,,inactive: -11%
O=C(CSc1nc2ccccc2s1)Nc1nccs1,,inactive: 14.8%
Cc1ccc(-c2cc(C(=O)Nc3ccc(S(=O)(=O)Nc4onc(C)c4C)cc3)[nH]n2)c(O)c1,,inactive: -2.4%
CCOc1ccc(-n2c(O)c(/C=N/Nc3nc(C)cc(C)n3)c3ccccc3c2=O)cc1,active: 2.24 µM,
CCOC(=O)c1c(NC(=O)CSc2nnc3c(Cl)cc(Cl)cn23)sc2c1CCC2,"inconclusive [inhibitor, full curve]",
Brc1ccccc1-c1nnc(COc2ncnc3c2cnn3-c2ccccc2)o1,"inconclusive [inhibitor, single point]",
COc1ccc(OC)c(S(=O)(=O)NC(C)c2ccc(-n3ccnc3)cc2)c1 (configuration not stated),"inconclusive [inhibitor, full curve, poor fit]",
COc1ccc2oc(C(=O)N3CCN(S(=O)(=O)c4ccc(F)cc4)CC3)c(C)c2c1,"inconclusive [inhibitor, partial curve]",
Cc1sc2ncn(-n3c(C)ccc3C)c(=O)c2c1C,,inactive: -4.09%
O=C(NCc1ccccc1)C1(CC2CC(c3ccccc3)=NO2)CCNCC1 (configuration not stated),"inconclusive [inhibitor, single point]",
Cc1ccc(C(=O)Nc2ccc(N3CCOCC3)cc2)cc1S(=O)(=O)N1CCCCC1,"inconclusive [inhibitor, single point]",
